Test results from article PMC4170211.
These are yes or no findings as the source states them, for the method shown. For part of these data: In cells and extracts the contact can be indirect. Some binding calls cover weakened binding; strength is not graded here. For part of these data: Sequences can lack the tags named with a protein. Values belong to the binder of their own block, whether it stands above or below them.

What was measured:
[1] = target: T1, Myc-Nde1 (mouse) (UniProt Q9CZA6); assay: co-IP; Myc-Nde1 transfected in 293T, immunoprecipitated by anti-myc 9E10 (mouse IgG as control), endogenous partners by immunoblotting; 25 mM HEPES, 150 mM NaCl, 10 mM NaF, 100 uM Na3VO4, 0.5% NP40, 10% glycerol, protease inhibitors, 1 mM ATP
T1 sequence: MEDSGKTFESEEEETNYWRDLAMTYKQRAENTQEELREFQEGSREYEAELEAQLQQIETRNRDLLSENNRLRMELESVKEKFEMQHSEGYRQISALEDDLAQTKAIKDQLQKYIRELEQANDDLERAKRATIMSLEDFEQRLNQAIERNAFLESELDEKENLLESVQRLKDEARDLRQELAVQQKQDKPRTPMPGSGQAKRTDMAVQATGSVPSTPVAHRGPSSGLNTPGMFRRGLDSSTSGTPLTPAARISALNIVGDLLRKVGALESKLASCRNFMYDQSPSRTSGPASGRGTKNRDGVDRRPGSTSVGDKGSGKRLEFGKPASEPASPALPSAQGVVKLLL

[2] = target: T2, Nde1 (bait of the yeast two-hybrid screen) (mouse) (UniProt Q9CZA6); assay: two-hybrid; yeast two-hybrid screen with Nde1 as bait
T2 sequence: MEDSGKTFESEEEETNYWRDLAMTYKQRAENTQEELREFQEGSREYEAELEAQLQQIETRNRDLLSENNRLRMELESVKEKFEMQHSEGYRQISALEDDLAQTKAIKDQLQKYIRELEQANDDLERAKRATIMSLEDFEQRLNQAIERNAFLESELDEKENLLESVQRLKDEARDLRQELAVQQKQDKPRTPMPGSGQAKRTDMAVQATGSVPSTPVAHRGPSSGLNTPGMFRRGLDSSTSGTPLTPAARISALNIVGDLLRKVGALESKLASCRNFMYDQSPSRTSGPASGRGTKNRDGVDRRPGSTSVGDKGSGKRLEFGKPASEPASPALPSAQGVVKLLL

[3] = target: T3, Flag-NBD of SMC3 (Nde1 binding domain of Smc3) (UniProt Q9CW03); assay: co-IP; Flag-NBD of SMC3 co-transfected with GFP-Nde1 in 293T, immunoprecipitated by the Flag antibody (mouse IgG as control), immunoblotting; 25 mM HEPES, 150 mM NaCl, 10 mM NaF, 100 uM Na3VO4, 0.5% NP40, 10% glycerol, protease inhibitors, 1 mM ATP
T3 sequence: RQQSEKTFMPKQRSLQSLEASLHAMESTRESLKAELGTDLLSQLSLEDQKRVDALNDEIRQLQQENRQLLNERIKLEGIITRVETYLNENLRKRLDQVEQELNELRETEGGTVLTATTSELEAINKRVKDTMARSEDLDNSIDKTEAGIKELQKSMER

binding [1]: binds
B1: RAD21, endogenous (protein, UniProt O60216 1-631)
chain: MFYAHFVLSKRGPLAKIWLAAHWDKKLTKAHVFECNLESSVESIISPKVKMALRTSGHLLLGVVRIYHRKAKYLLADCNEAFIKIKMAFRPGVVDLPEENREAAYNAITLPEEFHDFDQPLPDLDDIDVAQQFSLNQSRVEEITMREEVGNISILQENDFGDFGMDDREIMREGSAFEDDDMLVSTTTSNLLLESEQSTSNLNEKINHLEYEDQYKDDNFGEGNDGGILDDKLISNNDGGIFDDPPALSEAGVMLPEQPAHDDMDEDDNVSMGGPDSPDSVDPVEPMPTMTDQTTLVPNEEEAFALEPIDITVKETKAKRKRKLIVDSVKELDSKTIRAQLSDYSDIVTTLDLAPPTKKLMMWKETGGVEKLFSLPAQPLWNNRLLKLFTRCLTPLVPEDLRKRRKGGEADNLDEFLKEFENPEVPREDQQQQHQQRDVIDEPIIEEPSRLQESVMEASRTNIDESAMPPPPPQGVKRKAGQIDPEPVMPPQQVEQMEIPPVELPPEEPPNICQLIPELELLPEKEKEKEKEKEDDEEEEDEDASGGDQDQEERRWNKRTQQMLHGLQRALAKTGAESISLLELCRNTNRKQAAAKFYSFLVLKKQQAIELTQEEPYSDIIATPGPRFHII

binding [2]: binds
B2: SMC3 fragment recovered from the Nde1 yeast two-hybrid screen (domain or fragment, UniProt Q9CW03 746-903)
chain: RQQSEKTFMPKQRSLQSLEASLHAMESTRESLKAELGTDLLSQLSLEDQKRVDALNDEIRQLQQENRQLLNERIKLEGIITRVETYLNENLRKRLDQVEQELNELRETEGGTVLTATTSELEAINKRVKDTMARSEDLDNSIDKTEAGIKELQKSMER

binding [3]: binds
B3: GFP-Nde1 (protein, UniProt Q9CZA6 1-344)
chain: MEDSGKTFESEEEETNYWRDLAMTYKQRAENTQEELREFQEGSREYEAELEAQLQQIETRNRDLLSENNRLRMELESVKEKFEMQHSEGYRQISALEDDLAQTKAIKDQLQKYIRELEQANDDLERAKRATIMSLEDFEQRLNQAIERNAFLESELDEKENLLESVQRLKDEARDLRQELAVQQKQDKPRTPMPGSGQAKRTDMAVQATGSVPSTPVAHRGPSSGLNTPGMFRRGLDSSTSGTPLTPAARISALNIVGDLLRKVGALESKLASCRNFMYDQSPSRTSGPASGRGTKNRDGVDRRPGSTSVGDKGSGKRLEFGKPASEPASPALPSAQGVVKLLL
